Measured values as given in PubChem BioAssay (NCATS).
Several values for one entry are separate records, joined by “and”; a condition that tells them apart may be missing. Identical values can stand only once. This list was built around the results that the source calls inconclusive (neither active nor inactive); the mix of calls is not that of the screen. Where the call is inconclusive, the potency comes from a doubtful curve fit. Activity calls are given as the source filed them. Calls come from the whole dose curve; as a rule, active = well fitted inhibition curve with a large enough effect; inconclusive = small, poorly fitted or top-dose-only effect; inactive = no such curve, though single readings can be large or run the other way.

Target: Cytochrome P450 2C9 (Homo sapiens) (UniProt P11712)
UniProt P11712, sequence (P11712 whole entry, looked up): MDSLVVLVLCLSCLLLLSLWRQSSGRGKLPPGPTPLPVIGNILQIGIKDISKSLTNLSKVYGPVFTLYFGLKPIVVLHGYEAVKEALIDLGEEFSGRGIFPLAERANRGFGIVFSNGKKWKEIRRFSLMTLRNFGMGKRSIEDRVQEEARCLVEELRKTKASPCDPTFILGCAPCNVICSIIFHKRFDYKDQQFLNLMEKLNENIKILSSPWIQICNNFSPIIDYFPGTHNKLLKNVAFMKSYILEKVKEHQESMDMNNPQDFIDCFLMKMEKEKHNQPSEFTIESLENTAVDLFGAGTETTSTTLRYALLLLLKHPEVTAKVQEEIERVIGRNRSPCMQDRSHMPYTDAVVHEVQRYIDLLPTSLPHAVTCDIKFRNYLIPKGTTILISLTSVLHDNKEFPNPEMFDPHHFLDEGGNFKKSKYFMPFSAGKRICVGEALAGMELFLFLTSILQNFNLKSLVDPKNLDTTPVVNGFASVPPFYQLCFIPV
Experiment: qHTS Assay for Inhibitors and Substrates of Cytochrome P450 2C9 (AID 883); note: nearly all actives have a fitted effect of over 60% in size
Conditions: recombinant CYP2C9, luciferin-H luminescence, 60 min; series mostly up to 57.1 µM
Method: NIH Molecular Libraries Screening Centers Network [MLSCN] NIH Chemical Genomics Center [NCGC] MLSCN Grant: None NCGC Assay Overview: The P450 gene superfamily is involved in the metabolism and clearance of xenobiotics. This assay used human CYP2C9 to measure the hydroxylation of deoxyluciferin (Luciferin-H; P450 Glo-Buffer) to luciferin. The luciferin is then measured by luminescence after the addition of a luciferase detection reagent. Luciferin-H concentration in the assay was equal to its Michaelis constant KM for CYP2C9. Inhibitors and some substrates limit the production of luciferin, and decrease measured luminescence.
NCGC Assay Protocol Summary: Two uL of enzyme and substrate mix (final concentrations: 10nM CYP2C9, 100uM Luciferin-H, 25mM KPO4) were dispensed into a white, solid bottom 1536-well microtiter plate. 23nL of compound was transferred by a pin tool. The plate was incubated at 37C for 10 min. Two uL of an NADPH regeneration solution (Promega supplied reagent) was dispensed and the reaction was allowed to continue for 60 min at 37C. Then the reaction was stopped by reconstituted P450 Glo-Buffer. After another 20 min of incubation the plate was read on the ViewLux (Perkin Elmer) at 60 sec exposure and 2x2 binning. This protocol was carried out with Promega-Glo reagents and further information can be found at http://www.promega.com/tbs/tb325/tb325.pdf. Data were normalized to the to AC100 inhibition (57uM sulphaphenazole). Keywords: P450, CYP2C9, Luciferase, MLSMR, MLSCN, NIH Roadmap, qHTS, NCGC
% is set by controls: 0 for no effect and ±100 for the full control effect; potency is the fitted concentration of half-maximal effect; tags give direction and shape of the fitted curve.

SMILES | Potency | activity change, negative = inhibition
CCCCCCN(CCCCCC)C(=O)Cc1c(-c2ccc(F)cc2)[nH]c2ccccc12 | inactive and inconclusive: 5.01 µM [inhibitor, full curve] | 
COc1ccccc1CNc1ncnc2ccc(-c3c(C)noc3C)cc12 | inconclusive: 0.794 µM [inhibitor, single point] | 
CCCc1c(-c2ccc(O)cc2)nn(-c2ccc(O)cc2)c1-c1ccc(O)cc1 | active: 3.16 µM | 
Cc1cccc(CNc2ccnc(-c3cccc(C#N)c3)n2)c1 | inconclusive: 0.794 µM [inhibitor, single point] | 
COc1ccc2c(c1)c(CC(=O)N1CCOCC1)c(C)n2C(=O)c1ccc(Cl)cc1 | active: 39.8 µM | 
CN(C)c1ccc(-c2nc(Nc3ccncc3)c3ccccc3n2)cc1 | inconclusive: 0.794 µM [inhibitor, partial curve] | 
COc1ccc(-c2nc3cnc(Oc4cccc(Cl)c4)nc3n(C[C@H]3CCCO3)c2=O)cc1 | active: 5.01 µM | 
CC(C)[C@@H]1[C@H]2CC[C@H](C2)[C@H]1N | inactive | 
COc1ccc2[nH]cc(CCNc3ncnc4ccc(-c5ccoc5)cc34)c2c1 | inconclusive: 0.398 µM [inhibitor, partial curve] | 
CN(C)c1ncc2ncc(=O)n(CCc3ccccc3)c2n1 | active: 6.31 µM | 
COc1ncc2nc(C)c(=O)n(CCC#N)c2n1 | inactive | 
Fc1ccc(C(c2ccc(F)cc2)N2CCN(C/C=C\c3ccccc3)CC2)cc1 | inconclusive: 39.8 µM [inhibitor, single point] and inconclusive: 15.8 µM [inhibitor, single point] and inconclusive: 20 µM [inhibitor, full curve, poor fit] | 
C[C@@H](C(=O)O)c1ccc(-c2ccccc2)c(F)c1 | inconclusive: 7.94 µM [inhibitor, partial curve, poor fit] | 
CN1CCN(c2ncc3nc(-c4ccccc4)c(=O)n(CCc4ccccc4)c3n2)CC1 | active: 3.16 µM | 
Cc1cccc(CNc2nc(-c3cccc(NS(C)(=O)=O)c3)nc3ccccc23)c1 | inconclusive: 0.501 µM [inhibitor, partial curve] | 
COc1cccc(-c2ccc3ncnc(Nc4ccccc4)c3c2)c1 | inconclusive: 0.631 µM [inhibitor, single point] | 
COc1ccc(CNc2ccnc(-c3cccc(C#N)c3)n2)c(OC)c1 | inconclusive: 0.501 µM [inhibitor, partial curve] | 
O=C(O)c1c(Br)c(Br)c(Br)c(Br)c1C1c2ccc(O)cc2Oc2cc(O)ccc21 | inconclusive: 7.94 µM [inhibitor, single point] | 
NS(=O)(=O)c1ccc(N=Nc2c[nH]c(=O)c(O)c2)cc1 | inconclusive: 6.31 µM [inhibitor, single point] | 
COc1cccc(-c2ccc3ncnc(NCc4ccc(OC)cc4OC)c3c2)c1 | inconclusive: 0.501 µM [inhibitor, partial curve] | 

SMILES | Potency | activity change, negative = inhibition
CC(C)=CCC1=C(OCC(=O)O)C(=O)c2ccccc2C1=O | inconclusive: 3.98 µM [inhibitor, single point] | 
Clc1ccccc1-c1ccc2ncnc(NCc3cccnc3)c2c1 | inconclusive: 0.794 µM [inhibitor, partial curve] | 
CCCn1c(=O)c2[nH]c(C3CCCC3)nc2n(CCC)c1=O | inactive | 
COc1cccc(-c2ccc3ncnc(NCc4cccs4)c3c2)c1 | inconclusive: 0.631 µM [inhibitor, partial curve] | 
COc1ccc(-c2ccc(=N)n(CCCC(=O)O)n2)cc1 | active: 3.16 µM | 
CN(C)c1ncc2nc(-c3ccc(F)cc3)c(=O)n(C3CC3)c2n1 | inconclusive: 0.251 µM [inhibitor, full curve] | 
COc1cc2c(cc1OC)C(=O)Cc1ccc3c(c1CN(C)CC2)OCO3 | inactive | 
N#Cc1cccc(-c2ccc3ncnc(NCc4cccs4)c3c2)c1 | inconclusive: 0.501 µM [inhibitor, partial curve] | 
CN1CCN(c2ncncc2-c2ccc(N(C)C)cc2)CC1 |  | inactive: 36.5% [at 2.29 µM]
COc1ccc(-n2c(=O)c(CCc3ccccc3)nc3cnc(OC)nc32)cc1 | inconclusive: 7.94 µM [inhibitor, full curve] | 
Clc1ccccc1-c1nc(Nc2ccncc2)c2ccccc2n1 | inconclusive: 1.58 µM [inhibitor, single point] | 
O=c1c(CCc2ccccc2)nc2cnc(Oc3cccc(Cl)c3)nc2n1C[C@H]1CCCO1 | active: 6.31 µM | 
CC(C)(C)NC[C@H](O)c1cc(O)cc(O)c1 | inconclusive: 0.631 µM [inhibitor, full curve, poor fit] | 
NCCCCCCNS(=O)(=O)c1cccc2c(Cl)cccc12 | active: 3.16 µM | 
COc1ccccc1-c1ccc2ncnc(Nc3ccccc3)c2c1 | inconclusive: 1.26 µM [inhibitor, single point] | 
c1ncc(-c2ccc3c(c2)OCO3)c(NCCc2cnc[nH]2)n1 | inconclusive: 0.794 µM [inhibitor, partial curve] | 
COc1ccc2[nH]cc(CCNc3ccnc(-c4ccccc4C)n3)c2c1 | inconclusive: 1.26 µM [inhibitor, single point] | 
N#Cc1cccc(-c2nc(Nc3ccncc3)c3ccccc3n2)c1 | inconclusive: 1.58 µM [inhibitor, single point] | 
Cc1ccccc1-c1ccc2ncnc(NCc3cccs3)c2c1 | inconclusive: 1.26 µM [inhibitor, single point] | 
N#CCCn1c(=O)c(-c2ccccc2)nc2cnc(Oc3cccc(Cl)c3)nc21 | inconclusive: 7.94 µM [inhibitor, full curve] | 
